Consider 88 sequences from the supplement of paper PMC11417369.

The other results are listed elsewhere or left out.

The assay relates to PfAP2-HC AP2 domain (GST-tagged). In words: gcPBM binding intensity (ln(normalized median fluorescence intensity)); higher = stronger DNA binding. Put shortly:
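GST-tagged P. falciparum DNA-binding domains, expressed in E. coli (about 25 μg on average), were applied for 1 h to an Agilent 4 × 180k array of primer-extended double-stranded 36-bp intergenic genomic probes plus negative controls. The binding buffer was 1× PBS with 1% milk, 0.2 mg/ml BSA, 0.5% salmon testes DNA and 0.03% Triton X-100. Bound protein was detected with Alexa488 anti-GST antibody and scanned at 488 nm. Binding intensity is the highest Masliner-normalised natural-log median intensity across replicate spots of either probe orientation.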
Take “TTTTTTTAATAGTGTGCACACAATATACAGAAAAAA [CACACA_site8399]”: the “gcPBM binding intensity (ln)” value worked out at 10.
“AAAAAGTGACTCCTTACACACTTTACATAATTTAGG [CACACA_site8176]”: the “gcPBM binding intensity (ln)” value turned out to be 9.66.
Turning to “ATATACATATATATATGTACTTATTTATTTATTTAT [XGTACX_site2532]”, the “gcPBM binding intensity (ln)” value came to 9.89.
Under “ATATATATATATATATGTACATATGTTTGTTTCCGC [XGTACX_site5167]” stands 10.1; under “CATAATTTAAAAAAGGTGCAAAATGGATAATATATA [GTGCAC_site9657]”, 9.84; under “CATACATACATACATACATGCATACATACATACATA [TGCATGCA_site218]”, 9.86.
The same measure for “TTTTTTTTCATTTTATGTACACATAATTTAATATAT [XGTACX_site5768]”: 9.9.
Turning to TAATTTCTTTAGGGGGTGCTTTTATAGTTTTTATTA, the “gcPBM binding intensity (ln)” value amounted to 10.1.
In the case of “TTTATATTTATGATGGGTACACAAAATTTTACCCAT [XGTACX_site1504]”, the “gcPBM binding intensity (ln)” value turned out to be 9.35.
Take “TTCATAAAATGTGTCTGTACGTAAATGTATTACACT [XGTACX_site3179]”: the “gcPBM binding intensity (ln)” value is 9.79.
Regarding “CTGTCTGCAGATATGGTGCATTTGTAAGATCTTACA [GTGCAC_site9870]”, the “gcPBM binding intensity (ln)” value amounted to 9.56.
The same measure for “AAAAAAATTAAAAATTAAAATTAAAAATAATATATA [GTGCAC_negctrl_site466]”: 9.52; for “AATGTATAAATCCATACACACATAAATTTTAATAAT [CACACA_site2363]”: 9.99.
The same measure for “TATATATATGAACAATGTACGTATAATATTTTTATT [XGTACX_site7561]”: 9.7.
The same measure for “GATCTATACTATAATACACACATTTGATGAATGTAA [CACACA_site6163]”: 9.71; for “AACATTATATATTGCAGTACTCCCATATGTTGATAA [XGTACX_site3119]”: 9.54.
With “ATATATATATATATATGTACACATAAAAAGAAAGAA [XGTACX_site1603]”, the “gcPBM binding intensity (ln)” value came to 10.1.
As for “TTTAGTTGTGAGAATTGTACATATTTTCCTTTTACC [XGTACX_site7291]”, the “gcPBM binding intensity (ln)” value worked out at 9.58.
With “TATATACCTATATACACACACATATATTATAGATAT [CACACA_site6266]”, the “gcPBM binding intensity (ln)” value was 10.3.
Regarding “ATTAAAAAAAATATATATGTATAAAACAAGCAAAAT [XGTACX_negctrl_site474]”, the “gcPBM binding intensity (ln)” value turned out to be 9.78.
Consider “TAGCCATTTTTATATTGTACTTATATAATCACATTT [XGTACX_site4407]”, for which the “gcPBM binding intensity (ln)” value was 9.74.
The same measure for “ATAAAAAAAAATAACACACAGACATAAGAATAAATA [CACACA_site4162]”: 10.2.
Take “ATATAAGAAAAGCACACACACACAAAAAAAAAAAAA [CACACA_site2827]”: the “gcPBM binding intensity (ln)” value stood at 11.1.
Under “GACCACTTTAGGATTTGTACACATATTATATATGCA [XGTACX_site6579]” stands 9.91; under “ATTAAAAAAATTGGCACACATAAAAATATATAAAAA [CACACA_site2748]”, 10.1; under “GTTTTTAATGTTTTGACATGCAATATTAAAAATAAT [TGCATGCA_site174]”, 9.31.
Under “AACAGATATGAATAGAAAAAAAAAAATGGCCCATAT [TGCATGCA_negctrl_site443]” stands 9.51.
Turning to “TGAAAAAAAAAATACACACACGAGTTGTTATACATA [CACACA_site7486]”, the “gcPBM binding intensity (ln)” value came out at 9.84.
Under “TTTTGATAGAAGTGTTCTAGGAATTCAACTGTAATA [GTGCAC_negctrl_site585]” stands 9.36; under “TATAATGATAATAATAGTACACATTAGAACGGGAGG [XGTACX_site2563]”, 9.96.
As for “TATAATAATAAAAACACACACGTTGATTGTATTAGC [CACACA_site5336]”, the “gcPBM binding intensity (ln)” value came out at 10.1.
The same measure for “ATAATATTATTTAAAAGTACTAACAAAAGAATATTA [XGTACX_site4989]”: 9.62; for “CCTATTATTTCTAAAACACACAAAAATATAAAAGAA [CACACA_site2708]”: 9.79; for “TCTTTTTTTTATTATATCATTGAAATGTTAAAACGA [XGTACX_negctrl_site473]”: 9.32.
The same measure for “AACGTGTGGAGAATTATAAATGAGTAAAAAATATAT [XGTACX_negctrl_site562]”: 9.85.
For the sequence “AAAATAAAAGAATAAAAATATGAAACTTTTTTAAAA [GTGCAC_negctrl_site348]”, the “gcPBM binding intensity (ln)” value worked out at 9.46.
The same measure for “GGGGGGAGGGTGAATACACACGTAATAATCATAAAC [CACACA_site8502]”: 10.5; for “ATTAAATAAAAAAACACACACATATATACCTATATA [CACACA_site5837]”: 11.
Regarding “CAAAACATTTTATCTACACACATATATAAATAAATA [CACACA_site3220]”, the “gcPBM binding intensity (ln)” value turned out to be 9.77.
Under “AATAAAACATAATAATGTACTCAAAGGTTTAACTTG [XGTACX_site4711]” stands 9.81; under “AAAAATGAAAGTAAGACATGCATGGAATTTTTTTTA [TGCATGCA_site347]”, 9.79.
As to “TTTTTTTTTTATGAAAGTACATATGAAAAATACGAA [XGTACX_site3451]”, the “gcPBM binding intensity (ln)” value worked out at 9.35.
Take “ATATATGTGTATGTATGTACTTATATTTTTTTTTAT [XGTACX_site1733]”: the “gcPBM binding intensity (ln)” value was found to be 9.78.
Under “GCAAATCAATTTTTTTTTAAAACTCATTTTTTCGTT [CACACA_negctrl_site1136]” stands 9.75; under “TCCGTTATATATGTGTGTACATATAATATATCCTCA [XGTACX_site2588]”, 9.86.
Under “TTCATACATATTTGAAGTACATTTAAAAATGTCCTT [XGTACX_site747]” stands 9.51; under “TCCAATATATTTATGAGTACTTATAAATTATACGTT [XGTACX_site742]”, 9.7.
The same measure for “GAAGTAATTTCATATACACACATATACATACATACA [CACACA_site6753]”: 9.83.
For “ATATATATATATGTATGTACGTATGTATTTACTGCT [XGTACX_site3839]”, the “gcPBM binding intensity (ln)” value worked out at 10.1.
Take “TATTTATAATTATAATAATATATATATATATATATA [TGCATGCA_negctrl_site173]”: the “gcPBM binding intensity (ln)” value came to 9.41.
On to “ATTGTGTTAATAAAATGTACATTTTCTCTACATTAA [XGTACX_site2766]”, for which the “gcPBM binding intensity (ln)” value was determined as 9.72.
In the case of “TTTGAATAAAAACAAAAAATTAAATTAAATTAAATA [CACACA_negctrl_site312]”, the “gcPBM binding intensity (ln)” value is 9.33.
Under “AATAGTCGGGTGCATACACACCTTAAATATAATATA [CACACA_site8271]” stands 9.57.
Turning to “TTATAAAATATTTATGCATGTGAAGAATATTATAAA [TGCATGCA_site1047]”, the “gcPBM binding intensity (ln)” value is 9.52.
Under GAAAAAAGTATCAAGGTGCGTATATACATCAAAATA stands 9.76; under “TTCTTACATGAGTGTACACACTTTTTTTCAGAAAAT [CACACA_site4215]”, 9.81.
The same measure for “GGTGGGGAGGAGTAATGTACAAATTAACATATTATG [XGTACX_site6666]”: 9.9; for “AAATGTTGAGCAGTACAAAAAAAAAAAAAAAAAAAA [GTGCAC_negctrl_site518]”: 8.66.
As for “CAAAACAAAACGTATGCACACAATTAAAATATTAAA [CACACA_site5815]”, the “gcPBM binding intensity (ln)” value was determined as 9.9.
As to “TTTTTTTTTTAATTGGGTACATATATAATTTAAGAA [XGTACX_site2732]”, the “gcPBM binding intensity (ln)” value stood at 8.99.
In the case of “CATTTATATAAAAGAACACACATATAAAATATTATT [CACACA_site3601]”, the “gcPBM binding intensity (ln)” value came to 9.77.
In the case of “AAGATACCAATGAAATGTACATATATATAAATATAA [XGTACX_site2135]”, the “gcPBM binding intensity (ln)” value stood at 9.72.
On to “TATATATTATAAAATTGTACATATATTAAATTTTTT [XGTACX_site5852]”, for which the “gcPBM binding intensity (ln)” value was found to be 9.32.
The same measure for “TAACTAATATATAAAACACACATCATAAAAATATAA [CACACA_site768]”: 9.9.
The same measure for “TTTTGTTGAAAAGTAAGATATTCCAACATGTTTTTA [CACACA_negctrl_site391]”: 9.43; for “AGCAAAACATAAAATAGTACACATTTAACAAAAAAA [XGTACX_site2921]”: 9.75.
Take “TTTTATCATCTTTTTACATTATGTATAAATATTTTC [CACACA_negctrl_site206]”: the “gcPBM binding intensity (ln)” value worked out at 9.84.
Under “AAAAGAACAATGAAGTGTACTAATAATTATTTATGT [XGTACX_site6649]” stands 9.73; under “ATATAATATATTTTTGAACACACAATATATATATAT [CACACA_site9368]”, 9.72; under “ACACATAAATGAATAAATAAATAAATATAAATATAA [CACACA_negctrl_site1784]”, 10.1.
Turning to “ATATCATTTTCCTGCACACATAAATTTATATAATAT [CACACA_site1048]”, the “gcPBM binding intensity (ln)” value is 9.97.
As for “AATTCGTACCTCATTTGTACATATATATATATATAT [XGTACX_site5513]”, the “gcPBM binding intensity (ln)” value turned out to be 10.
As to “TTTTTTATAGTACATTACCAAAAAAAAAAAAAAAAA [GTGCAC_negctrl_site549]”, the “gcPBM binding intensity (ln)” value turned out to be 8.85.
In the case of “CATACACCCATACATACACACATACAGATATATATA [CACACA_site5123]”, the “gcPBM binding intensity (ln)” value is 10.1.
The same measure for “ATATATTGCACTTTTTGTACATAATGAAAAATTTTT [XGTACX_site8223]”: 9.62; for “TACATATTGATATATACACACAAAAAAATAAATTCT [CACACA_site6198]”: 9.86.
The same measure for “ACCTTAATAAAAAAAAGTACAAACATGTTCAAATTG [XGTACX_site1556]”: 9.62.
Under “ATCTCTGTATGTTAGACACACATATTTTAATATGTT [CACACA_site4244]” stands 9.88; under TAAAATTTGTACATAGTGCAATTTTTTTTTTTTTTT, 9.41.
In the case of “TCACCATATAAACGTGCACACTACAAAAATATATAA [CACACA_site5413]”, the “gcPBM binding intensity (ln)” value worked out at 9.67.
The same measure for “TATTTATTTAAAAATTGTACGTAGGATTATACACTT [XGTACX_site286]”: 9.49; for “CTTTTATTTTATTTTAGTACGCAACATTCTCTATAT [XGTACX_site7279]”: 9.76; for “ATATAAATATTATAATGTACATATAATATATTTATT [XGTACX_site5212]”: 9.57.
For “TTTTTTTTTTTTTTCTTACAATTTATTGAACAAATG [XGTACX_negctrl_site515]”, the “gcPBM binding intensity (ln)” value is 9.22.
Under “AGTGATTATTAATAATGTACATATCTATAAATATAT [XGTACX_site4734]” stands 9.64; under “TAGTTTTTTATATATTGTACAAATAATATATGATAT [XGTACX_site4220]”, 9.53; under “AATAAATAAATATATATATATATATATATATATATA [CACACA_negctrl_site365]”, 9.72.
Take “ACAATTTACACTTAAACACACAAAAAAAAGTTATAT [CACACA_site7056]”: the “gcPBM binding intensity (ln)” value amounted to 9.98.
